Source: PMC4336329 (PLoS ONE, 2015)
Hit rate of the full screen: of about 310,000 compounds, about 2,200 (0.71%) showed an effect of 50% or more. The effect is printed as a negative number. This is one part of the list.

The compounds below were run against human ether-à-go-go-related gene (hERG) potassium channel (human, UniProt Q12809) (assay: primary screen, population patch clamp on CHO cells stably expressing hERG).
Chain of human ether-à-go-go-related gene (hERG) potassium channel (Q12809 whole entry, looked up): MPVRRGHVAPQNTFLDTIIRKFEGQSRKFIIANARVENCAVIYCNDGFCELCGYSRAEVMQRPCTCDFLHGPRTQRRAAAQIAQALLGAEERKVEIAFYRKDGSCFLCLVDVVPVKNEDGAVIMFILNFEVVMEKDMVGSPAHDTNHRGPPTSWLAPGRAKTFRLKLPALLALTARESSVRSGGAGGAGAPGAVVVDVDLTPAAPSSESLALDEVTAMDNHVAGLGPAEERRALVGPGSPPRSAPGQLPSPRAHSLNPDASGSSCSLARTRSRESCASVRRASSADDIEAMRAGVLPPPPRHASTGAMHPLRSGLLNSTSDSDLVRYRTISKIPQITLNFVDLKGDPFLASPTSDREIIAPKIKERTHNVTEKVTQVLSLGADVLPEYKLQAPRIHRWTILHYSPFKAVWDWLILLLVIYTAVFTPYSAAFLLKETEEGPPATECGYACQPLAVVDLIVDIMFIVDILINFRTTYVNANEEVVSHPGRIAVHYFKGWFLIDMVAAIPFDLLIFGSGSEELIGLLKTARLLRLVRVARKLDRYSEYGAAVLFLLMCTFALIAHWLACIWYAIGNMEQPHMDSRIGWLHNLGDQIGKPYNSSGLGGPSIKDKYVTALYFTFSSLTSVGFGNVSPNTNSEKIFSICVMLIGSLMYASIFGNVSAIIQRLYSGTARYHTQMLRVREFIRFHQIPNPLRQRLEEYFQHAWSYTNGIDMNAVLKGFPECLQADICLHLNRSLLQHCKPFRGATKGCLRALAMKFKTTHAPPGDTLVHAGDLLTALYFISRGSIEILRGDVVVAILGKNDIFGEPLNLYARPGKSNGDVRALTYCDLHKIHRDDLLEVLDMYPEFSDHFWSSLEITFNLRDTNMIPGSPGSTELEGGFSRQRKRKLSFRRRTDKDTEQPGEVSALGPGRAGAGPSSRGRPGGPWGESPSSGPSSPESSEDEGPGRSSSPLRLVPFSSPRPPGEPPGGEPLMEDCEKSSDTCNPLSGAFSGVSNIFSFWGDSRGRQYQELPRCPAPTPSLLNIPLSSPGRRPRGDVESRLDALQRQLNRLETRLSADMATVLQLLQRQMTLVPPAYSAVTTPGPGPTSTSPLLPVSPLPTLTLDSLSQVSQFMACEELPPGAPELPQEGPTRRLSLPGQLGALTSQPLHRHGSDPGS

Row | Compound | hERG current change (%, negative = inhibition) at 1uM
1 | Cc1ccc(C(=O)NNC(=O)c2ccc(S(=O)(=O)N3CCOCC3)cc2)cc1 | 8.19%
2 | Cc1c(NC(=O)Nc2ccc(C(C)C)cc2)c(=O)n(-c2ccccc2)n1C | 8.33%
3 | CCCCCn1c(=O)c(C(=O)Nc2cccc(C)n2)c(O)c2ccccc21 | 18.9%
4 | CCN1CCN(C(=O)/C=C/c2cccc(Cl)c2)CC1 | 10.4%
5 | Cc1ccc2sc(N3CCN(C(=O)c4ccc([N+](=O)[O-])o4)CC3)nc2c1C | 9.37%
6 | CSc1ccccc1NC(=O)c1cc(-c2cccs2)on1 | 11.4%
7 | Cc1ccc(-c2nc3ccccc3nc2-c2ccccc2)cc1 | 18.9%
8 | O=C1CCC2(CC1)NC(=O)N(c1ccccc1)N2 | 14.9%
9 | CCOC(=O)/C(=N\Nc1ccccc1Cl)N1CCN(Cc2ccccc2)CC1 | 14.3%
10 | Cc1cccc(N(CC(=O)NCc2ccc3c(c2)OCO3)C(=O)CCC(=O)Nc2ccccn2)c1 | 4.35%
11 | CC(C)(O)CC[C@H](OC(=O)c1ccccc1)[C@](C)(O)[C@H]1CC[C@@]2(O)C3=CC(=O)[C@@H]4C[C@@H](O)[C@H](O)C[C@]4(C)C3CC[C@]12C (some centres unmarked) | 15.3%
12 | CC(C)CN(CC(C)C)C(=O)Cc1coc2ccc3ccccc3c12 | 6.52%
13 | O=C(C1CCC(=O)N(C2CCCCCC2)C1)N1CCN(c2ccccc2Cl)CC1 (centres unmarked) | -2.5%
14 | CCCCNC(=O)Cn1c(=O)c2c(ncn2CC)n(Cc2ccccc2)c1=O | 10.1%
15 | COc1ccc(C(O)(C(C)C)C(CN2CCOCC2)c2ccccc2)cc1.Cl (centres unmarked) | 6.65%
16 | COc1ccc(CCn2c(=N)c(S(=O)(=O)c3ccccc3)cc3c(=O)n4ccccc4nc32)cc1 | 10.8%
17 | FC(F)(F)c1nc2ccccc2[nH]1 | 11.5%
18 | Cc1ccc(S(=O)(=O)N2CN(Cc3ccco3)c3nc4ccccc4nc32)cc1 | 0.909%
19 | Cc1ccc(C(=O)Nc2ccc(N3CCN(S(C)(=O)=O)CC3)cc2)cc1C | 15.4%
20 | CC1(C(=O)O)CCC(C(=O)NCCc2ccccc2)C1(C)C (centres unmarked) | 14.5%
21 | Cc1cc(C(=O)COC(=O)c2nccnc2N)c(C)n1C | 14.9%
22 | N#Cc1ccccc1OCc1cccc(S(=O)(=O)N2CCOCC2)c1 | 11.3%
23 | Cc1c(C(=O)NCCSCc2cccc(C(F)(F)F)c2)cnn1-c1ccc(Cl)cc1 | 1.51%
24 | CCOC(=O)c1cn(CC)c2cc(N3CCSCC3)c(F)cc2c1=O | -11.1%
25 | COc1ccc(C)cc1Nc1nc(C)nc2c1oc1ccccc12.Cl | 22.3%
26 | CN(c1ccc(C(=O)Nc2ccccn2)cc1)S(=O)(=O)c1ccccc1 | 6.58%
27 | Cc1ccc2nc(NC(=O)CN3C(=O)NC4(CCCCC4)C3=O)sc2c1 | 2.67%

Row | Compound | hERG current change (%, negative = inhibition) at 1uM
28 | COc1ccc(OC)c(NC(=O)CSc2nc3c(c(=O)n(C)c(=O)n3C)n2C)c1 | 7.54%
29 | Cc1ccc(-n2ncc3c2CCCC3NC(=O)CCC2=NNC(=O)CC2)cc1C (centres unmarked) | 7.4%
30 | COCCCNC(=O)c1ccc2c(c1)CCN2S(C)(=O)=O | -20.5%
31 | CC(CC1C(C#N)=C(N)OC2=C1C(=O)CCC2)c1ccccc1 (centres unmarked) | -5.8%
32 | CCOC(=O)C1CCCN(C(=O)c2cc(CN3C(=O)c4ccccc4C3=O)ccc2OC)C1 (centres unmarked) | 16.9%
33 | O=C(COC(=O)/C=C/c1ccc([N+](=O)[O-])cc1)NC1CCCCC1 | 3.11%
34 | CC(Sc1ccc(Cl)cc1)C(=O)Nc1ccc(S(=O)(=O)N2CCOCC2)cc1 (centres unmarked) | 5.79%
35 | COC(=O)C1=C(c2cc3ccccc3s2)C[C@@H]2CC[C@H]1N2C(=O)NC(C)C | -8.6%
36 | CCOC(=O)c1sc(NC(=O)CCC(=O)O)nc1C | 17.1%
37 | COc1cccc(NC(=O)CN(C)C(=O)c2c(C)nn(Cc3ccc(C)cc3)c2Cl)c1 | 6.87%
38 | Cc1cc(C)c2nc(SCC(=O)NCCN3C(=O)CSC3=O)cc(C)c2c1 | 6.41%
39 | CC1CCN(C(=O)COC(=O)c2ccc(=O)n(Cc3ccccc3)n2)CC1 | 3.45%
40 | COc1ccccc1N1C(=NC(=O)COc2ccccc2)SC2CS(=O)(=O)CC21 (centres unmarked) | 20.3%
41 | CCc1ccc(NC(=O)C(=O)NCC2CCCN2S(=O)(=O)c2cccs2)cc1 (centres unmarked) | 11.9%
42 | COc1ccc(-c2cc3c(=O)n(CC(=O)Nc4cccc(Cl)c4)ncn3n2)cc1 | 14.8%
43 | COc1ccc(S(=O)(=O)N/N=C(/C)c2ccncc2)c(OC)c1 | 1.74%
44 | CCOc1ccc(OCCC(=O)OCC(=O)N2CCN(c3ccc(OC)cc3)CC2)cc1 | 11.5%
45 | CCC1CCCCN1C(=S)NC(=O)c1ccc([N+](=O)[O-])cc1 (centres unmarked) | 10%
46 | Cn1c(=O)c2c(ncn2CC(=O)N/N=C/C=C\c2ccccc2[N+](=O)[O-])n(C)c1=O | 3.02%
47 | COc1cccc(C(=O)N/N=C(\C)c2ccc(NC(=O)Cc3ccccc3)cc2)c1OC | 14.9%
48 | CCN(CC)C(c1ccc(F)cc1)c1nnnn1CC1CCCO1.Cl (centres unmarked) | 16.1%
49 | Cc1ccc2oc(C(=O)N(Cc3ccc(N(C)C)cc3)C3CCS(=O)(=O)C3)c(C)c2c1 (centres unmarked) | 1.31%
50 | COc1ccc(CNC(=O)c2sc(=S)n(-c3ccccc3)c2N)cc1 | 4.76%
51 | Cc1[nH]c2ccccc2c1C(=O)COC(=O)C1CC(O)CN1S(=O)(=O)c1ccc(Cl)cc1 (centres unmarked) | 11.2%
52 | CCCc1nc(-c2ccccc2)c(-c2ccc(OC)c(OC)c2)c(=O)[nH]1 | 11.6%
53 | COc1ccc(C)cc1N(CC(=O)NC1CCCC1)C(=O)CCC(=O)Nc1nc(C)cs1 | 0.975%
